# Results as given in PubChem BioAssay AID1347073 (National Center for Advancing Translational Sciences (NCATS), 2019).
# Screen size: about 45,000 compounds; about 200 (0.44%) were called active. About 7% were inconclusive and are not listed. The call rests on the fitted dose curve; in most records, active means well fitted activation curve with a large enough effect; inconclusive means small, poorly fitted or top-dose-only effect; inactive means no such curve, though single readings can be large or run the other way. The list shows a part of the results.
# Test: qHTS of TDP-43 Inhibitors: NCGC Sytravon Library Screen; further: 0% is about no effect; nearly all actives have a fitted effect of over 55% in size
# Details: yeast TDP-43 toxicity rescue, BacTiter-Glo growth, 24 h; series mostly up to 46.1 µM; growth rescue (activation): at the top concentration
# How it was run: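 TDP-43-expressing yeast, pregrown in raffinose, seeded at OD600 0.02 in galactose medium with compound for 24 hr at 30 deg C. Growth read by BacTiter-Glo luminescence, so rescue of toxicity appears as activation.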
row,SMILES,growth rescue (activation)
1,O=C(COC(=O)c1cc(=O)[nH]c2ccccc12)NC1CCCCC1,inactive: 3.34%
2,COc1cc(/C=N/NC(=O)c2ccc(O)cc2)ccc1OCC(=O)N1CC(C)OC(C)C1 (centres undefined),inactive: -2.81%
3,COCCNC(=O)c1c[nH]c2ccc(S(=O)(=O)N(C)c3ccc(C)c(C)c3)cc2c1=O,inactive: -2.42%
4,O=C(Nc1ccc2nccnc2c1)c1ccco1,inactive: -4.73%
5,Cc1cc(Cl)ccc1OCC(=O)N(Cc1sccc1C)C1CCS(=O)(=O)C1 (centres undefined),inactive: 4.75%
6,CCCOc1cccc(C(=O)N(Cc2sccc2C)C2CCS(=O)(=O)C2)c1 (centres undefined),inactive: 14.8%
7,CCN(CC)S(=O)(=O)c1ccc(N/N=C(\C)c2ccncc2)nc1,inactive: 7%
8,Nc1cc(Oc2ccc(F)cc2F)cc([N+](=O)[O-])c1,inactive: 13.3%
9,COc1ccc(NC(=O)CNC(=O)c2nn(-c3ccc(OC)cc3OC)c(=O)c3ccccc23)c(OC)c1,inactive: 0.487%
10,O=C(Nc1ccc2oc(=O)ccc2c1)c1ccc2ccccc2c1,inactive: 11.2%
11,COc1cccc2c(SCC(=O)N/N=C/c3ccc(O)cc3O)cc(C)nc12,inactive: 6.56%
12,CS(=O)(=O)N(Cc1ccccc1)c1ccc(C(=O)N2CCOCC2)cc1,inactive: 22%
13,CN(c1ccc(OCC(=O)NC2CCC(O)CC2)cc1)S(=O)(=O)c1ccc(Cl)cc1 (centres undefined),inactive: 2.95%
14,Cc1ccc(C)c(N(CC(=O)NCc2ccccc2)C(=O)c2csnn2)c1,inactive: 4.31%
15,COCCNC(=O)C(c1c[nH]c2ccccc12)N(C(=O)c1snc(C(N)=O)c1N)c1cccc(OC)c1 (centres undefined),inactive: 2.57%
16,O=C(/C=C/c1cccs1)NC1CCCC1,inactive: 17.9%
17,O=C(NCCNC(=O)c1ccccc1F)c1ccccn1,inactive: -6.27%
18,O=C(COC(=O)c1cccnc1Cl)c1ccc(F)cc1,inactive: 3.52%
19,COc1ccccc1N1CCN(S(=O)(=O)c2ccc(-n3cnnn3)c(C)c2)CC1,inactive: 21.4%
20,COc1ccc(C(=O)/C=C/C(=O)N(CC(=O)NCCC(C)C)Cc2cccs2)c(O)c1,inactive: 1.27%
21,CCN(CC)CCOc1ccccc1C(C)=O,inactive: -14.4%
22,COc1cccc(/C=N/Nc2nc(C)cc(=O)[nH]2)c1OC,inactive: -13.8%
23,O=C(Nc1ccccc1)c1c2c(nc3ccccc13)CCCC2,inactive: -4.81%
24,COc1ccccc1N1CCN(C(=O)c2cc(C)on2)CC1,inactive: 7.58%
25,Cc1cc(=O)oc2cc(OCC(=O)OCC(=O)Nc3ccc4ccccc4c3)ccc12,inactive: 20.8%
26,O=C(NCCN1CCN(c2cccc(Cl)c2)CC1)c1ccc(CSc2nc3ccncc3[nH]2)cc1,inactive: 6.79%
27,Cc1ccc(C)c(-n2cc(CNCCCn3cccn3)c(-c3ccccc3)n2)c1,inactive: -6.54%

row,SMILES,growth rescue (activation)
1,CSc1ncc(Cl)c(C(=O)Nc2ccc(S(=O)(=O)Nc3nccc(C)n3)cc2)n1,inactive: 6.86%
2,Cc1ccc(CCNC(=O)C2CCC(=O)N(Cc3cccc(F)c3)C2)cc1 (centres undefined),inactive: 19.9%
3,O=C(CSc1nncn1-c1cccnc1)Nc1ccccc1C(F)(F)F,inactive: -13.6%
4,Fc1cc(F)cc(NC(=S)N2CCN(c3ncccn3)CC2)c1,inactive: 16.4%
5,Cc1csc(NC(=O)c2c(O)c3c(n(CC(C)C)c2=O)CCCC3)n1,inactive: -14.3%
6,CN1CCC(NC(=O)c2ccncc2)CC1,inactive: -0.864%
7,Cc1ccc(C(=O)c2cc3ccccc3o2)cc1[N+](=O)[O-],inactive: -5.81%
8,Cc1noc2ncnc(N3CCN(c4ccc(F)cc4)CC3)c12,inactive: 10.1%
9,OC[C@@H]1CN(Cc2ccc3c(c2)OCO3)C[C@H](n2cnc3c(NCc4ccc(F)cc4)ncnc32)O1,inactive: 6.22%
10,COc1cc(C)c(Cl)cc1S(=O)(=O)NCc1ccccn1,inactive: 6.34%
11,O=C(COC(=O)C12CC3CC(CC(C3)C1)C2)Nc1ccc([N+](=O)[O-])cc1Cl,inactive: 9.68%
12,CCOc1ccc(/C=N/N2C(C)CCCC2C)cc1 (centres undefined),inactive: -6.78%
13,CC(=O)C1=C(O)C(=O)N(c2ccc(Br)cn2)C1c1ccccc1F (centres undefined),inactive: 8.15%
14,C/C(N)=C(/C#N)C(=O)COC(=O)C(NS(=O)(=O)c1ccc(Cl)cc1)C(C)O (centres undefined),inactive: -2.04%
15,FC(F)(F)c1cccc(Cc2noc(CN3CCCC3)n2)c1,inactive: 6.64%
16,COc1ccc(/C=C(\NC(=O)c2ccccc2)C(=O)NCCN2CCOCC2)cc1,inactive: -21%
17,CCOc1ccc(CNC(=O)C2CCN(c3nnc(-n4c(C)ccc4C)s3)CC2)cc1,inactive: 10.2%
18,CC(C)NC(=O)c1nn2c(C(F)(F)F)cc(-c3ccco3)nc2c1Cl,inactive: 7.57%
19,Oc1ccc(/C=N/Nc2ncc(Br)cn2)c(O)c1,inactive: 1.26%
20,O=C(Nc1cccc(S(=O)(=O)Nc2ccc(Cl)cc2)c1)c1ccc2c(c1)OCCO2,inactive: 8.16%
21,COc1cn(-c2ccccc2)nc1C(=O)Nc1ccc(C)cc1Cl,inactive: 16.6%
22,COc1ccc(S(=O)(=O)N2CCC(NC(=O)C(Cc3cccc(OC)c3OC)NC(C)=O)CC2)cc1 (centres undefined),inactive: 9.27%
23,CCOC(=O)N1CCN(C(=O)C2CCN(c3ncnc4c3sc3cccc(F)c34)CC2)CC1,inactive: 5.52%
24,COC(=O)c1cccc2c1NC(=O)C2=O,inactive: -1.37%
25,O=[N+]([O-])c1ccc(N2CCOCC2)cn1,inactive: -7.45%
26,N#C/C(=C/c1ccncc1)c1nc2ccccc2c(=O)[nH]1,inactive: 19.6%
27,CC(NC(=S)Nc1ccccc1OC(F)F)C(C)(C)C (centres undefined),inactive: 15.1%
